Source: PubChem BioAssay (NCI)
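Each compound was tested at five concentrations against cells in 96-well plates for 48 hours. GI50 marks 50% less growth. TGI is the concentration that stops growth completely.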

Each compound was assayed on NCI-H322M lung (assay: DTP human tumour cell line panel, 48 h).

SMILES	GI50	TGI
CS(=O)(=O)CCNCc1ccc(-c2ccc3ncnc(Nc4ccc(OCc5ccccc5)cc4)c3c2)o1	2.63 µM	> 25 µM
CC(=O)Oc1cc(Cl)c(C)c2c1[C@H]1CC[C@]3(C)[C@@H](OC(C)=O)CC[C@H]3[C@@H]1CC2	–	> 100 µM
CCN(CC)CCCC(C)Nc1c2ccc(Cl)cc2nc2ccc(O)cc12 (stereo not drawn)	1.56 µM	6.12 µM
COc1ccc(C(=O)c2sc(N(C)C)nc2-c2ccccc2)cc1	–	> 100 µM
CC1CN1C(=O)NCCCCCCNC(=O)N1CC1C (stereo not drawn)	–	> 100 µM
O=C(O)c1ccccc1/C=N/NC1=NCCN1	–	> 100 µM
COc1cc(/C=N\N(C)C)cc(/C=N/N(C)C)c1O	–	> 100 µM
N#CC12CNCC1CN=N2 (stereo not drawn)	–	> 100 µM
CCCCCCCC[C@@H](O)CC(=O)N[C@@H](CC(N)=O)C(=O)N[C@@H](CCC(N)=O)C(=O)N[C@@H](CC(=O)c1cc(C)cc(O)c1C(=O)c1c(O)cccc1O)CC(C)C	28.9 µM	> 100 µM
Nc1cccnc1NCC1(CO)CCCC1	–	> 100 µM
COC(=O)C1=C(O)C(C(=O)OC)[C@]2(O)[C@H](C(=O)OC)[C@H]1C[C@@H](c1ccc(Cl)cc1)[C@H]2C(=O)OC (stereo partly drawn)	–	23.3 µM
c1ccc(-c2nc3ccccc3n3c(CN4CCCCC4)nnc23)cc1	–	> 100 µM
Ic1ccc2c(c1)N(c1ccccc1)c1cc(N=c3ccc4nc5ccc(I)cc5n(-c5ccccc5)c-4c3)ccc1N2	–	> 100 µM
O=C1CCC(N2C(=O)c3ccccc3C2=O)C(=O)N1CO (stereo not drawn)	> 100 µM	> 100 µM
CCC(C)(C)C1CCC2c3c([nH]c4ccccc34)C3C(=O)N(c4ccc(OC)cc4)C(=O)C3C2C1 (stereo not drawn)	–	> 100 µM
O=C1Nc2ccccc2C1(c1ccc(O)cc1)c1ccc(O)cc1	0.865 µM	70.8 µM
CCc1ccccc1NC(=O)C1=C(C)NC(C)=C(C(=O)Nc2ccccc2CC)C1c1ccc2c(c1)OCO2	–	> 100 µM
COc1cc2ncnc(Nc3cccc(Cl)c3)c2cc1OC	–	5.69 µM
O=C1CSSCC(=O)Nc2ccccc2N1	–	> 100 µM
c1ccc2c(c1)CC1=C(O2)c2ccccc2OC1	–	> 100 µM
Nc1cccc(S(=O)(=O)NCC(=O)O)c1	–	> 100 µM
O=C(CCN(C(=O)O)S(=O)(=O)c1ccc(NC(=O)c2ccccc2)cc1)NC1CCCCC1	–	> 100 µM
CC(CCC(=O)O)(c1ccc(O)cc1)c1ccc(O)cc1	–	> 100 µM
COc1nc(N=P(c2ccccc2)(c2ccccc2)c2ccccc2)cc(=O)[nH]1	–	> 100 µM
COc1ccc2c(c1)CCCN2c1c2ccccc2nc2ccccc12	0.788 µM	> 100 µM
CCN(CC)C(c1ccc(N(C)C)cc1)C(c1ccc(N(C)C)cc1)N(CC)CC (stereo not drawn)	–	> 73 µM

SMILES	GI50	TGI
C[N+]1=C(/C=C/c2ccc(O)c3ncccc23)C(C)(C)c2ccccc21	3.03 µM	12.7 µM
Cc1cc2c(cc1C(=O)CCC(=O)O)CC1(C2)Cc2cc(C)c(C(=O)CCC(=O)O)cc2C1	–	> 100 µM
O=C1c2ccccc2C(=O)c2c1cc(S(=O)(=O)O)c(O)c2O	–	> 100 µM
COc1ccc2c(c1)[n+](=O)c(C(=O)C/C(=N/OCCCc1ccccc1)C(=O)NC13CC4CC(CC(C4)C1)C3)c(C)n2[O-]	–	> 100 µM
CC/C=C\C[C@@H](O)C/C=C1/C(=O)C=C[C@H]1C/C=C\CCCC(=O)OC	5.17 µM	17.5 µM
Cc1cc2c(cc1Cl)SC1=NN(C)S(=O)N1S2(=O)=O (stereo not drawn)	> 100 µM	> 100 µM
COc1cc[nH]c1/C=C1\C(=O)Nc2ccc(F)c(C#CC3(O)CCNCC3)c21	0.288 µM	1.64 µM
COC(=O)c1cc(C)ccc1C1CN=NC12Cc1ccc(C)cc1C2=O (stereo not drawn)	–	> 100 µM
O=C(CC1(O)C(=O)Nc2c(Cl)ccc(Cl)c21)c1ccc(F)cc1 (stereo not drawn)	–	> 100 µM
O=C(O)CCC(=O)Nc1ccc2ccccc2c1	–	> 100 µM
CC/C=C\C[C@H](F)C/C=C1/C(=O)C=C[C@@H]1C/C=C\CCCC(=O)O	8.69 µM	25 µM
NCCCCC(NC(=O)C(N)Cc1ccc(O)cn1)C(=O)O (stereo not drawn)	–	> 100 µM
NC(=O)COC(=O)c1c(Cl)nc2sccn12	–	> 100 µM
CC(SC(=S)N1CCOCC1)c1cc2oc(=O)n(C)c2cc1Cl (stereo not drawn)	–	> 100 µM
C/C(Cl)=N/OC(=O)Nc1ccc(S(N)(=O)=O)c(C)c1	–	> 76.5 µM
CCN(CC)CCn1nc(N)c2nc3ccccc3nc21	–	> 100 µM
Cc1ccc([N+](=O)[O-])cc1S(=O)(=O)Nc1ccc(C2=NN(c3ccc([N+](=O)[O-])cc3[N+](=O)[O-])C(c3cccs3)C2)cc1 (stereo not drawn)	–	83.8 µM
Cc1ccc(/C(Cl)=C/C=C(C#N)C#N)cc1	–	26 µM
COc1ccc(C[C@@H](CO)NC2=C(C#N)CCC2)cc1	–	> 100 µM
CC(C)(C)OC(=O)CN1C(=O)CC1CC(=O)c1ccccc1 (stereo not drawn)	–	36.9 µM
C[C@@H]1OC(=O)N2CCCC(=C3SCCCS3)C12 (stereo partly drawn)	–	> 100 µM
COc1ccc2nc3c(C(=O)NCCN(C)C)cccc3nc2c1	–	38.4 µM
O=c1[nH]nc(-c2ccccc2)n1-c1ccncc1	–	> 100 µM
COC(=O)CC(c1cn(S(=O)(=O)c2ccc(C)cc2)c2ccccc12)C1C[C@@H](C(=O)OC)N(C(=O)OC(C)(C)C)C1=O (stereo partly drawn)	–	> 100 µM
COc1cc2cc(Oc3ccc(NC(=O)Nc4ccc(Cl)c(C(F)(F)F)c4)cc3)c(C)nc2cc1OCCN1CCOCC1	2.82 µM	11.2 µM
O=C(O)C(CS)Nc1c2ccccc2nc2ccccc12 (stereo not drawn)	–	> 100 µM

SMILES	GI50	TGI
Cc1cc(C)c2c(O)c(S(=O)(=O)c3ccc(Cl)cc3)c(=O)oc2c1	–	> 100 µM
Cc1cc(S(=O)(=O)Nc2nc(N)n(-c3ccccn3)n2)c(S)cc1Cl	–	> 100 µM
CCOC(=O)c1c(NC(=O)c2cccs2)sc2c1CCC2	–	> 100 µM
O=C(O)/C=C(\c1nc2ccc([N+](=O)[O-])cc2[nH]1)c1cc(Cl)ccc1O	2.8 µM	> 100 µM
c1ccc(CCCCNCc2cc(CNCCCCc3ccccc3)cc(CNCCCCc3ccccc3)c2)cc1	–	2.55 µM
CN1CCN(c2ccc3[nH]c(-c4cc(O)c5c(nc(CO)n5C)c4O)nc3n2)CC1	–	> 100 µM
COC1(OC)CC2OC1C1N=NN(C(=O)OC(C)(C)C)C21 (stereo not drawn)	–	> 100 µM
CCCC1N2CCCCC2[C@@H]2c3[nH]c4ccccc4c3CCN12 (stereo partly drawn)	–	> 100 µM
CCOCc1c(C)cc(C)c(C2C(C(=O)c3ccccc3)N3c4ccccc4C=CC3C2(C#N)C(=O)OCC)c1C (stereo not drawn)	–	> 100 µM
Clc1ccccc1-c1nc2ccc(C34CC5CC(CC(C5)C3)C4)cc2[nH]1	–	> 100 µM
COc1ccc2c(c1)-c1nc(=S)n(CCCN(C)C)c3ccc([N+](=O)[O-])c(c13)N2	–	16 µM
Cc1cc(Cl)cc2c1NC(=O)C2(O)CC(=O)c1ccco1 (stereo not drawn)	–	> 100 µM
Cc1cc(N(CCC#N)CCC#N)ccc1/C=C1\N=C(c2cc([N+](=O)[O-])ccc2Cl)N(c2cccc(Cl)c2)C1=O	–	> 100 µM
O=c1[nH]nc(-c2ccccc2)n1/N=C/c1ccc([N+](=O)[O-])cc1	–	> 100 µM
Cc1cccc(C(C)C)c1NC(=O)/C(Cc1c([N+](=O)[O-])cccc1[N+](=O)[O-])=N/NC(=O)CC#N	–	> 100 µM
Cc1c(C(=O)C/C(=N/NC(=O)C[N+](C)(C)C)C(=O)Nc2ccc(Cl)cc2)[n+](=O)c2ccccc2n1O	–	> 100 µM
CC1(C)C2CCC(CN)(C2)C1N (stereo not drawn)	–	> 100 µM
CC1(C)OC2=C(CC1Br)C(=O)C(=O)c1ccccc12 (stereo not drawn)	1.88 µM	3.49 µM
CO/C(N)=C(\C#N)N=Cc1ccco1	–	> 100 µM
COc1ccccc1NC(=S)Nc1cc(C)cc(C)n1	–	> 100 µM
CC(=O)c1sc2c(c1OC(=O)c1ccco1)c(=O)n(-c1ccccc1)c(=S)n2-c1ccccc1	–	63.5 µM
O=S(=O)(NC1=NCCN1C(=S)SN1CCn2c1nsc2=S)c1cccc(Cl)c1	13.3 µM	35.4 µM
Nc1nc(Cl)c(CO)c(NCC2(CO)CC(CCc3ccccc3)C2)n1 (stereo not drawn)	–	> 100 µM
C/C(O)=C(\N=O)C(=O)Nc1ccc(Cl)cc1Cl	–	> 100 µM
OC1(c2ccccc2)C2CCN(CC2)C1CN1CCOCC1 (stereo not drawn)	–	> 100 µM
CCCCCCCC(=O)OCC/C=C/C1OC1C1OC(=O)/C=C\C=C\c2nc(oc2C)/C=C(/C)CCC2OC2C1OC(=O)NC(C)=O (stereo not drawn)	0.0509 µM	4.31 µM

SMILES	GI50	TGI
O=S(=O)(O)C1=C2Sc3ccccc3N=C2c2ccccc2C1	–	30.3 µM
COC(=O)c1cc2c(cc1CC1Cc3cc4c(cc3C1=O)CCC4)CCC2 (stereo not drawn)	–	> 100 µM
NC1=NC(c2ccccc2)CC(c2cc(Cl)ccc2O)=N1 (stereo not drawn)	–	35.8 µM
COc1ccc(/C=C2\CCC(C)C3C2=NN(c2ccccc2)C3c2ccc(OC)c(OC)c2)cc1OC (stereo not drawn)	–	19.7 µM
COc1ccc2c(c1)C(=O)c1c-2n(CCCn2ccnc2)c(=O)c2cc([N+](=O)[O-])ccc12	< 0.0164 µM	> 28.9 µM
C#CCNC(=O)c1cccc2c1cc(C)n2-c1nc2c(c(NCc3ccccc3)n1)CCCC2	0.248 µM	0.613 µM
CCOC(=O)c1oc2cc3c(c4c2c1-c1ccccc1N4C)C=CC(C)(C)O3	–	87.5 µM
CCCC(=O)OCC1OC(n2cnc3c(=S)nc[nH]c32)C(OC(=O)CCC)C1OC(=O)CCC (stereo not drawn)	6.42 µM	> 100 µM
Nc1nc2c(nnn2C2CC(O)C(CO)O2)c(=O)[nH]1 (stereo not drawn)	5.02 µM	> 100 µM
O=C(O)C(=Cc1ccc(-c2ccccc2)cc1)C(=O)O	–	> 57.3 µM
Nc1nc(N(Cc2ccccc2)c2ccccc2)c2cn[nH]c2n1	7.28 µM	> 100 µM
OCCCNc1nc(=S)[nH]c2[nH]ncc12	> 100 µM	> 100 µM
O=C(O)CCSC(=O)Nc1ccc([N+](=O)[O-])cc1	–	> 100 µM
O=C1c2cccc([N+](=O)[O-])c2C(=O)N1c1ncn[nH]1	–	> 100 µM
O=C(Cn1c2c(c3ccccc31)CCCC2)N1CCCC1	–	> 100 µM
Cc1ccc(C(=O)N(CCCN)C(c2oc3cc(Cl)ccc3c(=O)c2Cc2ccccc2)C(C)C)cc1 (stereo not drawn)	< 0.01 µM	2.02 µM
C/C(CC(=O)Nc1cc(C)ccc1C)=N\NC(=O)c1ccncc1	–	> 100 µM
O=C(O)C1CCCN(CCc2c[nH]c3ccccc23)C1 (stereo not drawn)	–	> 100 µM
O=P1(O)c2ccccc2CCc2ccccc21	–	> 100 µM
CCC[CH2][Sn]1([CH2]CCC)[O]C(=O)CN=Cc2c(ccc3ccccc23)[O]1	> 100 µM	> 100 µM
O=C(N/C(=C\c1cccc([N+](=O)[O-])c1)c1nc2ccc([N+](=O)[O-])cc2[nH]1)c1ccccc1	–	> 100 µM
O=C1CCC2(c3ccccc3)Nc3ccncc3N12 (stereo not drawn)	–	> 10 µM
COc1cc2ncn(-c3cc(OCc4cccs4)c(C(N)=O)s3)c2cc1OC	3.67 µM	> 25 µM
Cc1ccc2c(c1)Sc1c(ccc3ccccc13)N2	> 100 µM	> 100 µM
